Some of the results follow.

For the assay, the system named is PF3D7_0420300 AP2 domain 1 (GST-tagged). Put plainly: gcPBM binding intensity (ln(normalized median fluorescence intensity)); higher = stronger DNA binding. The procedure, abridged:
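Binding intensity is the highest Masliner-normalised natural-log median intensity over replicate spots in either probe orientation. To obtain it, GST-tagged P. falciparum DNA-binding domains made in E. coli were incubated for 1 h on an Agilent 4 × 180k array of primer-extended double-stranded 36-bp intergenic genomic probes plus negative controls. Detection used Alexa488 anti-GST antibody with scanning at 488 nm.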
With “AAAAAAAAAAAAATCACACACAATATGAATTTATAG [CACACA_site601]”, the “gcPBM binding intensity (ln)” value turned out to be 9.52.

With “TATAGAAGCGTTCACACACACACATACATACCCATA [CACACA_site4915]”, the “gcPBM binding intensity (ln)” value came to 10.3.

As to “AAAAAACAATCTCATACACACTAGGGATTAATTATT [CACACA_site5051]”, the “gcPBM binding intensity (ln)” value was 9.62.

With “TCACATGGAAAAAAGTGTACATAATTATGTATAAAT [XGTACX_site2827]”, the “gcPBM binding intensity (ln)” value is 9.31.

With “TATAAAAAATAAAAAGTTTAATGAATATTTCTTTTA [TGCATGCA_negctrl_site379]”, the “gcPBM binding intensity (ln)” value is 8.78.

In the case of “ATATATATAACATATACACACGTTCATATATATATA [CACACA_site4416]”, the “gcPBM binding intensity (ln)” value worked out at 9.53.

Take “TTACAAGTAAAAGGTACACACATTATATATACAAAT [CACACA_site8290]”: the “gcPBM binding intensity (ln)” value turned out to be 9.74.

Turning to “TAATTTTTATTTTATTTTATTTTTTTTTTTTTTATT [CACACA_negctrl_site1671]”, the “gcPBM binding intensity (ln)” value was found to be 9.19.

“TATTTGTAAATCGATACACACATATATCTTAATATA [CACACA_site4273]”: the “gcPBM binding intensity (ln)” value worked out at 9.32.

As for “CGGCACGTGATATATACACACATATAGATATATACA [CACACA_site6408]”, the “gcPBM binding intensity (ln)” value was 9.43.

In the case of “TGGATAATGAATGATGCACACTAAAAATATTCTACA [CACACA_site5912]”, the “gcPBM binding intensity (ln)” value is 9.34.

With “ATATATACTATATTTTAACACACAAAAAAAAAAAAT [CACACA_site8277]”, the “gcPBM binding intensity (ln)” value was 9.58.

Take “CTTTTTTCAAGACACACACACAAGAAAATATAAATA [CACACA_site7455]”: the “gcPBM binding intensity (ln)” value turned out to be 9.97.

Regarding “CACCCACCCAGACACACACACACAAAAAAAAAAAGA [CACACA_site499]”, the “gcPBM binding intensity (ln)” value came out at 10.1.

As to “TGTTAATTGAATGCAATCTGAATTTTTTTACATAAT [CACACA_negctrl_site1002]”, the “gcPBM binding intensity (ln)” value was 9.07.

Turning to “ATCATATGTATGCATACACACAAAAAGTTATTTATA [CACACA_site6325]”, the “gcPBM binding intensity (ln)” value is 9.37.

On to “GAAAATCAGTTAAACACACACATAAAAAAAAAAAAA [CACACA_site2875]”, for which the “gcPBM binding intensity (ln)” value turned out to be 9.64.

In the case of “CATATAAAAAAATAGACACACATTTTATATAATACG [CACACA_site1896]”, the “gcPBM binding intensity (ln)” value worked out at 9.58.

Take “TCAAGTATTAAAATGGGTACATAAATATGTGTATAT [XGTACX_site5884]”: the “gcPBM binding intensity (ln)” value stood at 9.41.

Regarding “CTTTTTAAATTAAAATGTACAGAAAAATATTATTAT [XGTACX_site8760]”, the “gcPBM binding intensity (ln)” value came to 8.92.

On to “TATTTTTCTTTTTTTTTTTTTTTTATATTATACGTG [XGTACX_negctrl_site363]”, for which the “gcPBM binding intensity (ln)” value was found to be 9.1.

Consider “AACCATGTTAACAATGCATGCATCACTATATAAACG [TGCATGCA_site421]”, for which the “gcPBM binding intensity (ln)” value is 9.25.

With “ATACATATATATAGGTGTACATATAATATATATATA [XGTACX_site2228]”, the “gcPBM binding intensity (ln)” value was 9.35.

Regarding “TTTAATTTTACATGAGAAACATATTACAATAAAATA [GTGCAC_negctrl_site606]”, the “gcPBM binding intensity (ln)” value stood at 8.97.

As for “GAAATACCGGAAAGCAAACACACATTTTAAAACCAT [CACACA_site3861]”, the “gcPBM binding intensity (ln)” value is 9.68.

In the case of “ATATTTTTTGGAAAGTGTACAATATTATATATTAAA [XGTACX_site2163]”, the “gcPBM binding intensity (ln)” value was found to be 9.06.

As to “TTTTTTTTTTTTAAATGTACTTATCAACTTTTATAT [XGTACX_site4641]”, the “gcPBM binding intensity (ln)” value is 9.19.

“TTATTTTGTTTATTATGTACACAAAGACATAATAAT [XGTACX_site5648]”: the “gcPBM binding intensity (ln)” value was found to be 9.03.

Regarding “CACTTACATAATTATTGTACAGATATTATCAAATAA [XGTACX_site567]”, the “gcPBM binding intensity (ln)” value was 9.05.

Turning to “ACTTATATTATAAATTGTACAAATATTATATTTGGT [XGTACX_site1424]”, the “gcPBM binding intensity (ln)” value was found to be 9.29.

For the sequence “AATATATGTAAATGGACACACACATATATATATATA [CACACA_site9220]”, the “gcPBM binding intensity (ln)” value was 9.47.

Take “AATAAAATAATCCAAGTGCATATGTAAAAATACATT [GTGCAC_site9576]”: the “gcPBM binding intensity (ln)” value amounted to 9.36.

On to “TACGTAAAAATAATACGTACATATATTTATAGAAAA [XGTACX_site4959]”, for which the “gcPBM binding intensity (ln)” value worked out at 9.02.

On to “ACGGACAATACGGAAACACACAAGTTATTTTATCAT [CACACA_site7310]”, for which the “gcPBM binding intensity (ln)” value was 9.49.

As to “AAAAAAAAAAGACACACACACACACGCATATACATA [CACACA_site7289]”, the “gcPBM binding intensity (ln)” value came to 10.2.

For the sequence “ACATAATATATATATTAACACACATCCTTTTATGTA [CACACA_site8317]”, the “gcPBM binding intensity (ln)” value came out at 9.58.

Consider “TGACTTTGTTGAATTTGTCCTCTTAACTCATAATAT [GTGCAC_negctrl_site217]”, for which the “gcPBM binding intensity (ln)” value came out at 9.24.

For the sequence “TTCTGTGTCTAAAAATGTACGGGAATATATAAAAGT [XGTACX_site2090]”, the “gcPBM binding intensity (ln)” value amounted to 9.38.

Turning to “TAATTTCTTATGTAGTGTACAAATAATATATGATAT [XGTACX_site597]”, the “gcPBM binding intensity (ln)” value stood at 9.13.

Consider “TAATCGGTAATATTAACACACACATTTATATATATT [CACACA_site8274]”, for which the “gcPBM binding intensity (ln)” value came to 9.81.

Consider “AATATCTGTATATCCACACACATATATATATATATA [CACACA_site4987]”, for which the “gcPBM binding intensity (ln)” value is 9.65.

In the case of “ATTATTCATATAACACGTACAAAACGAAAAACAAAT [XGTACX_site3873]”, the “gcPBM binding intensity (ln)” value amounted to 9.62.

For “GTATTAATAAAAATACGTACTTATTATTTATAATAA [XGTACX_site7672]”, the “gcPBM binding intensity (ln)” value was 8.84.

“AAAAGGAGAAATATTGCACACGTGCAAAATGGTATG [CACACA_site4300]”: the “gcPBM binding intensity (ln)” value worked out at 9.44.

The values above are taken from the supplement of paper PMC11417369.
